# The shares of active, inactive and inconclusive entries below differ from those in the screen. Where a call stands in place of a potency, no number is given. For some assays here: Where the call is inconclusive, the potency comes from a doubtful curve fit. Activity calls are given as the source filed them. Unless noted, calls come from the whole dose curve; as a rule, active = well fitted curve in the direction sought with a large enough effect in the repeat runs; inconclusive = weak or mixed curves; inactive = no such curve, though single readings can be large; an effect the other way counts as inactive or inconclusive.
# Key:
# [1] = qHTS assay to identify small molecule antagonists of the peroxisome proliferator-activated receptor gamma (PPARg) signaling pathway - cell viability counter screen (AID 743194); settings: PPARg-bla HEK293H viability, CellTiter-Glo luminescence, 17 h, co-treated with 50 nM rosiglitazone; activity change, negative = cytotoxicity: at 62.6 µM (top of the series) unless noted; note: nearly all actives have a fitted effect of over 55% in size; note: potency is the fitted concentration of half-maximal effect
# Method in brief: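 PPARg-UAS-bla HEK293H cells were plated, rested 5 h at 37 C, then treated with compounds plus rosiglitazone (50 nM final) for 17 h at 37 C; viability was then read by CellTiter-Glo luminescence after 30 min at room temperature.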
# [2] = qHTS assay to identify small molecule agonists of the sonic hedgehog signaling (Shh) pathway - cell viability counter screen (AID 1259366); note: nearly all actives have a fitted effect of over 50% in size
# Method in brief: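 Fluorescence from CellTiter-Fluor reports live cells in this counter screen. NIH/3T3-derived Gli1-Luc reporter cells receive test compounds for 24hr at 37C; reagent goes in at 23hr.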
# [3] = molecular target: Estrogen receptor beta (Homo sapiens) (UniProt Q92731); assay: qHTS assay to identify small molecule antagonists of the estrogen receptor beta (ER-beta) signaling pathway (AID 1259378; active = well fitted inhibition curve with a large enough effect in the signal ratio in the repeat runs, not every such curve was filed as active; inconclusive = weak or mixed curves, or effect the other way; inactive = no such curve, though single readings can be large or run the other way; the % refers to the signal ratio); settings: ER-beta-UAS-bla HEK293T, beta-lactamase FRET ratio, 16 h; activity, negative = inhibition: at 92.4 µM (top of the series) unless noted
# Method in brief: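 ER-beta-UAS-bla HEK293T (GripTite) cells in 2% charcoal-stripped FBS medium were preincubated 6 hr at 37C, dosed with compound, then stimulated with 1 nM E2 (final) for 16 hr; beta-lactamase reporter read by B/G FRET fluorescence after 2 hr substrate loading.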
# [4] = molecular target: Androgen receptor (Homo sapiens) (UniProt P10275); assay: qHTS assay to identify small molecule antagonists of the androgen receptor (AR) signaling pathway (AID 743035; active = well fitted inhibition curve with a large enough effect in the signal ratio in the repeat runs, not every such curve was filed as active; inconclusive = weak or mixed curves, or effect the other way; inactive = no such curve, though single readings can be large or run the other way; the % refers to the signal ratio); settings: HEK293 AR-UAS-bla, R1881-stimulated, beta-lactamase FRET, 16 h; activity change, negative = inhibition: at 58.5 µM (top of the series) unless noted
# Method in brief: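 Using qHTS, AR-UAS-bla GripTite HEK293 cells received compound, then R1881, and were cultured 16 h at 37C/5% CO2 before a 2 h room-temperature LiveBLAzer B/G FRET substrate step and fluorescence measurement.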
# [5] = molecular target: Thyrotropin receptor (Homo sapiens) (UniProt P16473); assay: qHTS assay to identify small molecule antagonists of the thyroid stimulating hormone receptor (TSHR) signaling pathway (AID 1259385; calls by dose curve; note: nearly all actives have a fitted effect of over 20% in size; note: potency is the fitted concentration of half-maximal effect); settings: TSHR-HEK293 cAMP HTRF, TSH-stimulated antagonist mode; activity change, negative = inhibition: at 92.4 µM (top of the series) unless noted
# Method in brief: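 TSHR-HEK293 cells were plated and held 18 h at 37C/5% CO2, then given compound plus Ro20-1724 and stimulated with TSH at 1.5 ng/mL final. After 30 min at room temperature, cAMP was detected with cAMP-d2/anti-cAMP-cryptate (1 h) by fluorescence.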
# [6] = qHTS RealTime-Glo MT Cell Viability Assay in HEK293 cells - 40 hour (AID 1224874); settings: RealTime-Glo luminescence; max response: hits give low values; note: nearly all actives have a fitted effect of over 50% in size
# Method in brief: (§1)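 Tox21 screen in HEK293 using RealTime-Glo MT chemistry, with cells and reagent co-dispensed. Luminescence proportional to viable cell number was captured at intervals during 40 h compound exposure at 37 C.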
# [7] = molecular target: Cytochrome P450 3A4 (Homo sapiens) (UniProt P08684); assay: Cytochrome P450 Family 3 Subfamily A Member 4 (CYP3A4) small molecule antagonists: luciferase reporter qHTS assay (AID 1671201); note: potency is the fitted concentration of half-maximal effect; nearly all actives have a fitted effect of over 50% in size
# Method in brief: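 Room-temperature assay throughout: 10 min compound–enzyme/substrate preincubation, 1 h reaction after NADPH regeneration solution, 20 min detection. Luciferin formed from proluciferin substrate is quantified by luminescence.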
# [8] = A CellTox Green Cytotoxicity Assay to monitor cytotoxicity in HepG2 cells - 40 hour (AID 1224879); note: nearly all actives have a fitted effect of over 40% in size; note: potency is the fitted concentration of half-maximal effect
# Method in brief: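 Nonlytic assay: viable cells exclude the dye, so fluorescence scales with cell death. HepG2 at 600 cells/well, compounds added after 5 h, signal read across 40 h.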
# [9] = A CellTox Green Cytotoxicity Assay to monitor cytotoxicity in HEK293 cells - 32 hour (AID 1224881); note: nearly all actives have a fitted effect of over 40% in size
# Method in brief: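 Seeding of HEK293 cells together with cytotoxicity dye preceded a 5 h incubation at 37 C/5% CO2. Test compounds in DMSO were then added and fluorescence monitored across 40 h.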
# [10] = qHTS assay to identify small molecule agonists of the TGF-beta/Smad signaling pathway (AID 1346859; active = well fitted activation curve with a large enough effect in the signal ratio in the repeat runs, not every such curve was filed as active; inconclusive = weak or mixed curves; the % refers to the signal ratio; note: potency is the fitted concentration of half-maximal effect)
# Method in brief: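 Beta-lactamase reporter activity downstream of Smad binding elements was measured in stably transfected HEK 293T cells; compounds were incubated for 5 hr, substrate for 2 hr at room temperature.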
# [11] = qHTS assay to identify small molecule antagonists of the androgen receptor (AR) signaling pathway using the MDA cell line - cell viability counter screen (AID 743041; note: nearly all actives have a fitted effect of over 45% in size; note: potency is the fitted concentration of half-maximal effect); settings: MDA-kb2 viability, CellTiter-Fluor, 16 h, cells co-treated with R1881 androgen agonist; viability change, negative = cytotoxic: at 70.3 µM (top of the series)
# Method in brief: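 MDA-kb2 AR-luc human breast carcinoma cells (MMTV-luciferase, AR/GR responsive) were treated with compounds plus R1881 agonist for 16 h at 37 °C. Viability was read as CellTiter-Fluor fluorescence in the same wells as the reporter assay.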
# [12] = molecular target: Estrogen receptor (Homo sapiens) (UniProt P03372); assay: qHTS assay to identify small molecule antagonists of the estrogen receptor alpha (ER-alpha) signaling pathway (AID 743069; active = well fitted curve in the direction sought with a large enough effect in the signal ratio in the repeat runs, not every such curve was filed as active; inconclusive = weak or mixed curves, or effect the other way; inactive = no such curve, though single readings can be large or run the other way; the % refers to the signal ratio); settings: HEK293 ER-alpha-UAS-bla, beta-lactamase ratio, antagonist mode; activity, negative = inhibition: at 69.4 µM (top of the series) unless noted
# Method in brief: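 HEK293 cells stably carrying an ER-alpha-UAS-bla beta-lactamase reporter were pre-cultured overnight in 2% charcoal-stripped FBS medium. Test compounds in DMSO were added together with 17beta-estradiol for 18 hr at 37C. Read-out was fluorescence after 2 hr with LiveBLAzer B/G FRET substrate at room temperature.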
# [13] = Human pregnane X receptor (PXR) small molecule agonists, qHTS cell viability counter screen (AID 1346977); note: nearly all actives have a fitted effect of over 50% in size
# Method in brief: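 After a 5hr pre-incubation, PXR-Luc HepG2 cells received compounds plus positive control in DMSO and were kept 24hr at 37C. Cell viability was quantified by fluorescence from CellTiter-Fluor added for the final hour.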
# [14] = qHTS assay to identify small molecule antagonists of the vitamin D receptor (VDR) signaling pathway - cell viability counter screen (AID 743225); settings: VDR-bla HEK293T viability, CellTiter-Glo luminescence, 16 h; viability change, negative = cytotoxic: at 61 µM (top of the series) unless noted; note: nearly all actives have a fitted effect of over 50% in size
# Method in brief: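 Luminescent cell viability (CellTiter-Glo) in VDR-bla HEK 293T cells after 16 h compound exposure at 37C in the presence of 3 nM final 1-alpha,25-dihydroxy vitamin D3.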
# [15] = qHTS assay to identify small molecule agonists of the vitamin D receptor (VDR) signaling pathway - cell viability counter screen (AID 743224); note: nearly all actives have a fitted effect of over 50% in size; note: potency is the fitted concentration of half-maximal effect
# Method in brief: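 Here cell health was gauged by luminescent ATP detection (CellTiter-Glo, 30 min RT) in VDR-bla cells that had been incubated with test compounds for 16 h at 37C and 5% CO2.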
# [16] = qHTS assay to identify small molecule antagonists of the estrogen receptor alpha (ER-alpha) signaling pathway using the BG1 cell line (AID 743080; calls by dose curve;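 note: BG1 cells stimulated with 17beta-estradiol alongside compound; nearly all actives have a fitted effect of over 25% in size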); settings: BG1Luc4E2 ERE-luciferase antagonist mode, luminescence; activity change, negative = inhibition: at 70.3 µM (top of the series) unless noted
# Method in brief: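 BG1-Luc-4E2 cells (endogenous full-length ER-alpha, 4xERE luciferase) hormone-starved 5 days in charcoal-stripped FBS, plated 4,000/well for 24 h, then compound plus 17beta-estradiol for 21.5 h at 37 C; ONE-Glo luminescence read.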
# [17] = qHTS RealTime-Glo MT Cell Viability Assay in HEK293 cells - 8 hour (AID 1224887)
# Method in brief: as §1
# [18] = qHTS assay to identify small molecule antagonists of the estrogen receptor beta (ER-beta) signaling pathway - cell viability counter screen (AID 1259382); note: nearly all actives have a fitted effect of over 55% in size
# Method in brief: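 Agonist-stimulated (1nM E2) ER-beta-UAS-bla HEK293T cells are incubated with library compounds for 16 hr at 37C. Cell viability is then assessed in the reporter-assay wells by adding CellTiter-Glo and reading luminescence after 30 min.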
# [19] = molecular target: Voltage-gated inwardly rectifying potassium channel KCNH2 (Homo sapiens) (UniProt Q12809); assay: Human Ether-a-go-go-Related Gene (hERG) channel small molecule antagonists: fluorescence cell-based qHTS assay (AID 1671200)
# Method in brief: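 Cell line hERG-U2OS; dye FluxOR II, 1 h RT dark; Tl+ stimulus; ex 480/em 540 nm, read each second for 2 min.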
# Tags give direction and shape of the fitted curve or compound fluorescence and quenching.
# UniProt P10275, sequence (P10275 whole entry, looked up): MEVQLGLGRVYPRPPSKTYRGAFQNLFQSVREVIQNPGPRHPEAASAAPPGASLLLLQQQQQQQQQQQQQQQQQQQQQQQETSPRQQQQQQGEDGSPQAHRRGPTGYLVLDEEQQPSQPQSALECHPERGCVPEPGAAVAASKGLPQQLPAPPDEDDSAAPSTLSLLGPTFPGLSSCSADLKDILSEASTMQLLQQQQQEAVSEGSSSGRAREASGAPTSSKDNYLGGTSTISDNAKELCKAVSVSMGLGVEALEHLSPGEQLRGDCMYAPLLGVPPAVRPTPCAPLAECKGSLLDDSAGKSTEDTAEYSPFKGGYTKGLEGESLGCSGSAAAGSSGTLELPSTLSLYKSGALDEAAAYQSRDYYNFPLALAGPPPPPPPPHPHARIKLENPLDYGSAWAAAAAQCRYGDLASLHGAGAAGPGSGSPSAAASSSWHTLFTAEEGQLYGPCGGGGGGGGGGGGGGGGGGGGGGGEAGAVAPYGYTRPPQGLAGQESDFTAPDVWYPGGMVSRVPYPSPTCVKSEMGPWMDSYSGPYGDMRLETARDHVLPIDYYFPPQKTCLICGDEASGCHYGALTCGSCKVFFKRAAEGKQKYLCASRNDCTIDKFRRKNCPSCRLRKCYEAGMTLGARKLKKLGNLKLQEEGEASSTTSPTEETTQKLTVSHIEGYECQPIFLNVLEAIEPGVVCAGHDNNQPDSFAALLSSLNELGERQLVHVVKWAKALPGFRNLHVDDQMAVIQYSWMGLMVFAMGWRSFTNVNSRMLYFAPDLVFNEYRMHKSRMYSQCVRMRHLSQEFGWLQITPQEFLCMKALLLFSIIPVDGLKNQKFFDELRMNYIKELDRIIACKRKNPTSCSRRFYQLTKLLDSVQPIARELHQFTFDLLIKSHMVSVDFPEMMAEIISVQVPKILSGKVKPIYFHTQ
# UniProt P16473, sequence (P16473 whole entry, looked up): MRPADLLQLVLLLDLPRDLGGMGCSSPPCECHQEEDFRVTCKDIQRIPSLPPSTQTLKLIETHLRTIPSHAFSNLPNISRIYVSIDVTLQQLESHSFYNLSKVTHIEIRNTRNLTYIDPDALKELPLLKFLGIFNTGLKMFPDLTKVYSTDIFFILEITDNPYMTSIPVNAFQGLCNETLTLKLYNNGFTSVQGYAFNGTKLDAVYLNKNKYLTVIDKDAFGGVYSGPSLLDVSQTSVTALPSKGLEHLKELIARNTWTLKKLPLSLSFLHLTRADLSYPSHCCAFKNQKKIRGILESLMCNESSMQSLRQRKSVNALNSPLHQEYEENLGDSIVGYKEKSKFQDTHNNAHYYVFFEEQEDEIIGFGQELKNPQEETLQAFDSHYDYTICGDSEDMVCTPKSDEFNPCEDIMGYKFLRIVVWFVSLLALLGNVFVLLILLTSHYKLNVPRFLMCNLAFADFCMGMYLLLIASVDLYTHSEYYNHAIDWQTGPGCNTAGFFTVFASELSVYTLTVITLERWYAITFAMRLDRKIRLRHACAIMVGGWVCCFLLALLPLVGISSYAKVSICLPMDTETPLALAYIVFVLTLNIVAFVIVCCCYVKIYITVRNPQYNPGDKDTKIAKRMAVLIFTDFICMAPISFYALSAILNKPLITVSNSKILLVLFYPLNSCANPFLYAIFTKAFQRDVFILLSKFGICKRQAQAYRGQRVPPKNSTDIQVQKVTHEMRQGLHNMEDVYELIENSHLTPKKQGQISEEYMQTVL
# UniProt Q92731, sequence (Q92731 whole entry, looked up): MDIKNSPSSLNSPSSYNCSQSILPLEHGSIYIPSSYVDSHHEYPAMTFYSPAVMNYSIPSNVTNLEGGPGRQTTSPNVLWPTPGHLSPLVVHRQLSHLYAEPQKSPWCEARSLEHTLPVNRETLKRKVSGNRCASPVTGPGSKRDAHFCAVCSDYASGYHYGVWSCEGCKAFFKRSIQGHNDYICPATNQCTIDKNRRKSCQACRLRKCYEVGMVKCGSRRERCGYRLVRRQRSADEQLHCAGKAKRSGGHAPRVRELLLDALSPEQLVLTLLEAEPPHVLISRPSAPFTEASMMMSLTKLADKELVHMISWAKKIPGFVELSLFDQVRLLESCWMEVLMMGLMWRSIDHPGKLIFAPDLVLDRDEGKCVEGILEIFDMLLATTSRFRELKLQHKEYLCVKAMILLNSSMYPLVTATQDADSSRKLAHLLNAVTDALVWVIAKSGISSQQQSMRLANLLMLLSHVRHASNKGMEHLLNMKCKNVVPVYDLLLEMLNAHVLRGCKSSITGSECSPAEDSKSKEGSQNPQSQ
# UniProt P08684, sequence (P08684 whole entry, looked up): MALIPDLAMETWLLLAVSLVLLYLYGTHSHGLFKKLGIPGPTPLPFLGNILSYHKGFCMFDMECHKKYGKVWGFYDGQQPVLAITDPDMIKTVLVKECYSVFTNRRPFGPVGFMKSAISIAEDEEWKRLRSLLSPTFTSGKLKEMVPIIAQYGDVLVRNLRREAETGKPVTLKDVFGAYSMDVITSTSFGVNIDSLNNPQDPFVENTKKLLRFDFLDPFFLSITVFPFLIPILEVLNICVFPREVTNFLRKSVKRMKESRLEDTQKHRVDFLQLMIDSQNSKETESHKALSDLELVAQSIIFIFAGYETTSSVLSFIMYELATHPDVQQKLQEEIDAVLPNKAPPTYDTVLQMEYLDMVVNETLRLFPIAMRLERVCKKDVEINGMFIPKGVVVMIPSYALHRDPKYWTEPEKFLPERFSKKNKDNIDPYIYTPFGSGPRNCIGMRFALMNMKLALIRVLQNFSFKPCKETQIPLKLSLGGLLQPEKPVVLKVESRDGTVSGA
# UniProt P03372, sequence (P03372 whole entry, looked up): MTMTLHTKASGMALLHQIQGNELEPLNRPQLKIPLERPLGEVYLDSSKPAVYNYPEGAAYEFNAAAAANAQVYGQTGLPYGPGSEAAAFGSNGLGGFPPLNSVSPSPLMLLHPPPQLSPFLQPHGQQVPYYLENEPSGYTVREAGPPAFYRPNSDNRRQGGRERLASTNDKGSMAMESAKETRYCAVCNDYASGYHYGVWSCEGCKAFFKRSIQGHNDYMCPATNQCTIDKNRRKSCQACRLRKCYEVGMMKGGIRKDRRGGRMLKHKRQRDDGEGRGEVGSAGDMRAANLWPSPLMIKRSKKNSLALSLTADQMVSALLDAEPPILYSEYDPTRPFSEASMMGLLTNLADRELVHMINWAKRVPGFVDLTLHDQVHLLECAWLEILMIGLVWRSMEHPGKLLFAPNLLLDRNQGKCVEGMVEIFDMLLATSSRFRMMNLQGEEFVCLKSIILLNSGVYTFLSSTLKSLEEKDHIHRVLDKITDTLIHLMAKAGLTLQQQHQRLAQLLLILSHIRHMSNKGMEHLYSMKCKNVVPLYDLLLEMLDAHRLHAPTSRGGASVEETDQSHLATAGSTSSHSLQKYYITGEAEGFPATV
# UniProt Q12809, sequence (Q12809 whole entry, looked up): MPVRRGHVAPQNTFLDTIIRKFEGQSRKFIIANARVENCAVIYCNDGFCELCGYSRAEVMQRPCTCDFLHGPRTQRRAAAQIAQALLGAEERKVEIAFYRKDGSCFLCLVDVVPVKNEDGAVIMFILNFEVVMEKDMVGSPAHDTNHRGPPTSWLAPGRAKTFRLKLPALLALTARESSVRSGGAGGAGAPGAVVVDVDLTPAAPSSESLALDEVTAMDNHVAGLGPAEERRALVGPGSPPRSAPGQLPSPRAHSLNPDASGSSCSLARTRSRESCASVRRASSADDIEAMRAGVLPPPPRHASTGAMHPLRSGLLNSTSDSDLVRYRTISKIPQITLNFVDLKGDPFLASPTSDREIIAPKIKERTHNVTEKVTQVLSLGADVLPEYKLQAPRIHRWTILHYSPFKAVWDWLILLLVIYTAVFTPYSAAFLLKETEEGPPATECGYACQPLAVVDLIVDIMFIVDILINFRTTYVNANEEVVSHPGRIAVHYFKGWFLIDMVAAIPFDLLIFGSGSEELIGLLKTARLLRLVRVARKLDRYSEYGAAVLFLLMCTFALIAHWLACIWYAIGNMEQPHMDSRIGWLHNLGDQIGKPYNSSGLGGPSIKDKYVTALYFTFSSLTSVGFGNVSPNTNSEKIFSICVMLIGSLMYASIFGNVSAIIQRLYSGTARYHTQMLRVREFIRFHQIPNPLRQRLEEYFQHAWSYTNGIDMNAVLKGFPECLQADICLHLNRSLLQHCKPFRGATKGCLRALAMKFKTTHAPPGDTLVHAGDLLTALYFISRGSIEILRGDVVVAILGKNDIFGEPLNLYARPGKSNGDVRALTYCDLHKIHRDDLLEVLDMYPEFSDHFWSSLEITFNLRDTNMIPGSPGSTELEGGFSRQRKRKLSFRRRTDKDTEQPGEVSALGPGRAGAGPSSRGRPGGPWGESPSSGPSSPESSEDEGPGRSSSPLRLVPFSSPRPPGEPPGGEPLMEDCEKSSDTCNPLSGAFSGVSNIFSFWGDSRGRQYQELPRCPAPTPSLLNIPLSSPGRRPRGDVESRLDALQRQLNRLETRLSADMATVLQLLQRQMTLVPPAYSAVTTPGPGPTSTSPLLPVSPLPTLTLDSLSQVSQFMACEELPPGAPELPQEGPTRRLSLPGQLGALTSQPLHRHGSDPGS
smiles,measurement,setting,value
CCCCCCCCCCCCSCCOCCO,Potency,[1],inactive
same,Potency,[2],inactive
same,"activity, negative = inhibition",[3],inconclusive: -42.3% [at 42.5 µM]
CCCN(CCC)C(=O)SCC,"activity change, negative = inhibition",[4],inconclusive: 13.3%
same,Potency,[5],inactive
CCC(=O)Nc1cccc(N)c1,max response,[6],inactive: 0.318%
same,Potency,[7],"inconclusive: 31.7 µM [inhibitor, partial curve]"
NC(=O)c1cc[n+](CC2=C(C(=O)[O-])N3C(=O)[C@@H](NC(=O)Cc4cccs4)[C@H]3SC2)cc1,Potency,[8],inactive
C[C@@H](Oc1ccc(CNC(=O)c2cccnc2Oc2ccc3c(c2)OCO3)c(F)c1)C(=O)O,Potency,[2],inactive
same,Potency,[7],"inconclusive: 35.6 µM [inhibitor, partial curve]"
CCn1ccc(NS(=O)(=O)c2ccc(N)cc2)nc1=O,"activity, negative = inhibition",[3],inconclusive: 14.2% [at 42.5 µM]
CC(=O)Nc1ccn(C2COC(COC(=O)c3ccccc3)O2)c(=O)n1 (stereo not drawn),Potency,[1],inactive
same,Potency,[9],inactive
same,Potency,[10],"inconclusive: 8.49 µM [rising, partial curve]"
CC(C)Nc1nc(N)nc(Cl)n1,"activity, negative = inhibition",[3],inconclusive: 28.6%
NS(=O)(=O)Cc1noc2ccccc12,Potency,[4],inactive
same,Potency,[11],inactive
same,Potency,[2],inactive
C=CC(=O)NC(C)(C)C,Potency,[12],inactive
CC(C)(C)c1cc(C=O)cc(C(C)(C)C)c1O,Potency,[13],inactive
CCCC(C)CC (stereo not drawn),Potency,[9],inactive
same,Potency,[10],inactive
COCCOC(=O)c1ccccc1C(=O)OCCOC,Potency,[8],"inconclusive: 49 µM [activator, partial curve, poor fit]"
same,Potency,[3],inactive
C[Si](C)(C)O[Si](C)(C)O[Si](C)(C)C,Potency,[14],inactive
CCCCCCCCCCCCCCC(=O)NC(CO)CCCCCCCCCCCCCC (stereo not drawn),Potency,[8],inactive
same,Potency,[5],"inconclusive: 77.7 µM [rising, single point]"
O=C1OC(=O)C2CCCCC12 (stereo not drawn),Potency,[15],"inconclusive: 54.8 µM [rising, partial curve]"
CCN(C)C(=O)Oc1cccc([C@H](C)N(C)C)c1,Potency,[4],inactive
same,Potency,[16],inactive
same,"viability change, negative = cytotoxic",[14],inconclusive: 14.8%
same,Potency,[17],inactive
CCc1ccc(C)nc1,Potency,[5],"inconclusive: 96.9 µM [rising, partial curve, poor fit]"
C1CCN2C[C@@H]3C[C@@H](CN4CCCC[C@@H]34)[C@H]2C1,Potency,[14],inactive
O=C1OC(=O)c2cc(Oc3ccc4c(c3)C(=O)OC4=O)ccc21,Potency,[11],"inconclusive: 68.6 µM [rising, partial curve, poor fit]"
same,Potency,[2],inactive
CCn1cc(C(=O)O)c(=O)c2cc(F)c(N3CCNCC3)nc21,Potency,[8],inactive
same,Potency,[18],inactive
same,Potency,[5],inactive
CCNC(=O)C(C)OC(=O)Nc1ccccc1 (stereo not drawn),Potency,[11],"inconclusive: 27.3 µM [rising, single point]"
same,Potency,[8],inactive
CNc1ccccc1,Potency,[18],inactive
CC(C)=CCCC(C)O (stereo not drawn),Potency,[5],inactive
CC(=O)Nc1c(I)c(NC(C)=O)c(I)c(C(=O)O)c1I,Potency,[1],"inconclusive: 1.55 µM [rising, full curve, poor fit]"
same,Potency,[17],inactive
CCC(C(=O)NC(=O)NC(C)=O)c1ccccc1 (stereo not drawn),Potency,[14],inactive
[O-][n+]1ccc(Cl)cc1,Potency,[15],inactive
COC(=O)[C@@H]1CC2=CC(=O)CC[C@]2(C)[C@@]23O[C@@H]2C[C@@]2(C)[C@@H](CC[C@@]24CCC(=O)O4)[C@H]13,Potency,[15],"inconclusive: 29.8 µM [rising, partial curve, poor fit]"
NS(=O)(=O)c1cc2c(cc1C(F)(F)F)NC(Cc1ccccc1)NS2(=O)=O (stereo not drawn),Potency,[19],"inconclusive: 26.8 µM [inhibitor, partial curve, poor fit]"
Nc1ccc(S(=O)(=O)O)cc1,Potency,[12],inactive
same,Potency,[16],inactive
same,Potency,[1],"inconclusive: 1.39 µM [cytotoxic, full curve, poor fit]"
same,Potency,[13],inactive

# Source: PubChem BioAssay (Tox21)
